Test results as given in paper PMC12040169 (PLOS Biology, 2025).
This is one part of the list.

System: T1, C. trachomatis L2/434/Bu expressing GFP (CTL2-GFP)
T1 construct: L2/434/Bu GFP intracellular growth in HeLa cells
Set-up: species or system HeLa; C. trachomatis total inclusion area by high-content imaging, normalised to DMSO
Conditions: total inclusion area; 28.5 h, 10 µM; inhibitor
Procedure, shortened: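 High-content imaging followed the bulk GFP/resorufin measurement: fixed, Hoechst-stained cells were scored for GFP inclusions and host nuclei per well. Total inclusion area and count served as growth proxies, nuclei number as the viability proxy. MIC calculation matched the bulk assay.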

SMILES	% of control remaining
O=C(O)c1ccc(OCC(O)Cn2nnc3ccccc32)cc1 (stereo not shown) [CBK286616]	95.0036
O=C(c1ccco1)N1CCN(C2C3CCCC2CNC3)CC1 (stereo not shown) [CBK284992]	115.34
Cc1oc2c(c1C(=O)NCC(=O)NCC(=O)O)CCCC2 [CBK264015]	105.766
O=C(CN1CCC(O)(c2ccccc2F)CC1)N1CCCCC1 [CBK281938]	81.8569
COc1cc(Br)cc(C2NC(=O)c3cnc(SC)nc3N2)c1O (stereo not shown) [CBK291179]	115.773
NC(=O)CN1CC2(CCN(Cc3cccc4cccnc34)CC2)c2ccccc21 [CBK137021]	71.8499
Cc1ccc(NC(=O)N(CCC#N)C2CCCCC2)cc1 [CBK156381]	98.9789
COc1ccc(C(=O)c2sc3nc(C)c(C)c(C)c3c2N)cc1OC [CBK074427]	89.9601
COCCNc1nc(-c2ccc3[nH]ccc3c2)ccc1C(=O)N1CCN(C)CC1 [CBK105956]	93.4156
CCc1nn(C)c2[nH]nc(NC(=O)Cc3csc(C)n3)c12 [CBK305538]	11.4528
CC(C)CCCC(C)NC(=O)COc1cc(C(=O)O)cc(C(=O)O)c1 (stereo not shown) [CBK296646]	115.257
CCn1c(C)nc2cc(NC(=O)c3oc(C)nc3C)ccc21 [CBK281881]	114.105
COc1cc(/C=C/C(=O)O)ccc1OCC(=O)Nc1ccccc1 [CBK265695]	118.391
CCCCc1ccc(NC(=O)Nc2ccc3ccc(Cl)nc3n2)cc1 [CBK063259]	66.0983
CC(=O)N1CCC(c2nc(Cc3cccs3)no2)C1 (stereo not shown) [CBK282998]	91.4862
Cc1cc(C(=O)Nc2ccc([C@@H](O)[C@H]3COCC(=O)N3Cc3ccccc3)cc2)n(C)n1 [CBK289669]	110.293
Cc1cc2c(=O)n(Cc3ccco3)c(SCc3cc(O)[nH]n3)nc2s1 [CBK268291]	125.705
Cc1ccc(SCCNS(=O)(=O)c2ccc3ccccc3c2)cc1 [CBK267504]	93.3425
Cc1cccc(N2CCN(CC(=O)Nc3cc(Cl)ccc3C#N)CC2)c1 [CBK306055]	64.9234
O=C(CCN1C(=O)c2cccc3cccc(c23)C1=O)Oc1ccc2c(c1)OCO2 [CBK266237]	88.3183
Nc1ncc(-c2cc(C(F)(F)F)cc(C(F)(F)F)c2)nc1-c1ccc(O)cc1 [CBK122503]	78.7506
CN(C)S(=O)(=O)N1CCN(C(=O)N(c2ccccc2)c2ccccc2)CC1 [CBK267466]	103.256
CC(=O)N(C)c1nc(-c2cccc(N(C)C)c2)ccc1C(=O)NCc1cccnc1 [CBK076639]	118.139
COCCn1ccnc1C1CCN(C(=O)C(O)c2cccc(Cl)c2)CC1 (stereo not shown) [CBK306901]	44.1961
O=C(NCc1ccncc1)C1CCCN(c2nc3c(-c4ccccc4)csc3c(=O)[nH]2)C1 (stereo not shown) [CBK215493]	86.7017
Cn1c(=O)c2c(nc(N3CCOCC3)n2CCC/N=C2\CCCCN2)n(C)c1=O [CBK218356]	86.2096
CC(C)(C)c1cc(C[C@H]2CNCC[C@H]2CC(=O)Nc2nccs2)no1 [CBK288798]	115.491

SMILES	% of control remaining
CCOc1ccc(-c2cncc(NCCc3ccncc3)n2)cc1 [CBK065774]	103.833
CCN1C(=O)c2ccccc2C(=O)[C@@]2(C)CN(C(=O)C(C)C)C[C@@H]12 [CBK281680]	81.5783
Cc1cc(I)ccc1OCCCCN1CCN(C)CC1 [CBK269652C]	87.0053
COc1cc([N+](=O)[O-])c2[nH]c(C(=O)O)c(CCNC(C)=O)c2c1 [CBK260895]	99.8684
Cn1c(N2CCC(C(=O)NC3CC3)CC2)nc2ccccc21 [CBK283940]	50.782
CC(=O)Nc1ccc(Oc2cc(C)nc(C3CCNCC3)c2)cc1 [CBK283468]	99.2535
CN(C)CCN(C(=O)Cc1ccc2c(c1)CCC2)C1CCN(C)CC1 [CBK282182]	75.7816
COc1ccc2[nH]c3c(c2c1)CCN(CC(C)O)C31CCN(CCOc2ccccc2)C1 (stereo not shown) [CBK084612T]	38.9753
O=C(CSc1nc2cccnc2[nH]1)Nc1cccc(F)c1 [CBK270113]	131.136
CCC(=O)N1CCC2(CCCC[C@H]3CN(C(C)=O)CC[C@H]3NC(=O)CNC2=O)CC1 [CBK292147]	98.4096
Cc1onc(-c2ccccc2)c1CNC(=O)[C@@H]1CCCN1C [CBK144077]	88.4249
Oc1nc2cccnc2cc1-c1ccc2c(c1)OCCCO2 [CBK081299]	114.42
COc1ccc([N+](=O)[O-])cc1NC(=O)Nc1ccc(Cl)c(Cl)c1 [CBK267593]	116.542
CCc1nc2n(n1)CC(NC1CCCc3ccccc31)CC2 (stereo not shown) [CBK304837]	75.2907
O=C(O)c1cccc(CSc2nnc(-c3ccccc3)c(-c3ccccc3)n2)c1 [CBK269165]	79.7925
Cc1ccc(Cl)cc1N(CC(=O)O)S(=O)(=O)c1ccccc1 [CBK262424]	97.6897
O=S(=O)(c1ccc(-n2cnc(Cl)c2Cl)cc1)N1CCCN(Cc2csc(-c3ccccc3)n2)CC1 [CBK062790]	82.291
OCCN(CCO)c1ccccc1N(CCO)CCO [CBK009141]	49.8459
COc1ccc([N+](=O)[O-])c(Oc2ccccc2OCc2ccccc2)n1 [CBK002753]	53.4822
CC(NC(=O)N(Cc1ccc(CN)cc1)Cc1ccc2ccccc2c1)c1cccc2ccccc12 (stereo not shown) [CBK046092C]	47.0797
CCc1nc2c(N3CCCn4nc(C(O)C5CC5)cc4C3)ncnc2o1 (stereo not shown) [CBK307543]	76.4115
Cc1cc(COc2nccc(C(F)(F)F)n2)no1 [CBK115800]	95.0288
CNS(=O)(=O)CCNC(=O)N1CCCN(Cc2ccc(F)cc2)CC1 [CBK304658]	58.316
CN1CCc2nc(SCC(=O)c3ccc(-c4ccccc4)cc3)c(C#N)c(-c3cccs3)c2C1 [CBK267447]	87.2934
O=C(c1ccco1)N1C2CCC1Cn1c(nc3ccccc3c1=O)C2 (stereo not shown) [CBK284452]	119.327
CC(=O)Nc1ccc(NC(=O)CN(C2CCCCC2)S(C)(=O)=O)cc1 [CBK266755]	100.754
Cc1ccc(-c2nc3ccccc3[nH]2)cc1NC(=O)CCCc1ccccc1 [CBK265789]	119.967

SMILES	% of control remaining
COC(=O)[C@H]1CCc2ccccc2N1C(=O)C1CC1 [CBK285518]	105.089
Cc1nc(CN(C)C2CCN(Cc3ccc4c(c3)CCC4)C2)no1 (stereo not shown) [CBK304052]	54.0427
O=C(NCCc1ccc(Cl)cc1)C1CCN(C(=O)CCc2ccccc2F)C1 (stereo not shown) [CBK285931]	105.525
CN(CC(=O)Nc1ccccc1C(N)=O)S(=O)(=O)c1ccc(Br)cc1 [CBK268648]	86.9932
CN1C(=O)CC2(C1=O)C(=O)N(C)c1ccc(F)cc12 (stereo not shown) [CBK075290]	105.642
CSCCOc1nccnc1N1CCCC1 [CBK115757]	91.7844
O=C(Nc1cccc(N2CCNCC2)c1)c1cccnc1 [CBK029414T]	57.8438
O=S(=O)(Nc1ccc(-c2nc3cccnc3s2)cc1)c1ccccc1 [CBK287547]	102.66
COC(=O)c1c(NC(=O)COc2ccccc2C(C)C)sc2c1CCCC2 [CBK266722]	119.374
COc1cc(S(=O)(=O)NCc2ccc3c(c2)OCO3)c(OC)cc1Cl [CBK264972]	106.391
O=C(CCC(F)(F)F)NCc1csc(-c2ccccc2)n1 [CBK092342]	96.8877
Cc1ccc(C)c(N2CCN(S(=O)(=O)c3ccc(-c4ccccc4)cc3)CC2)c1 [CBK100692]	86.8446
Cc1ccccc1CN1CCN(CC2CC3C=CC2C3)CC1 (stereo not shown) [CBK263402]	105.356
O=C(CCCn1nnc2ccccc2c1=O)NCc1cccc(Cl)c1 [CBK294446]	113.98
NC(CCCCNC(=O)c1ccccc1)C(=O)O (stereo not shown) [CBK261087]	93.659
CCOc1ccc(C2(C)C(=O)N(CN3CCOCC3)C(=O)N2CN2CCOCC2)cc1 (stereo not shown) [CBK261359]	100.798
NC(=O)c1c(F)cccc1-c1cc(NCCO)nc2[nH]ccc12 [CBK306689]	71.5503
Nc1ncc(-c2ccccc2CO)nc1NC1CCOCC1 [CBK063799]	153.742
COc1cc([C@@]23CCC(=O)C[C@@H]2N(C)CC3)ccc1OCc1ccccc1 [CBK049727]	53.3386
Cc1cccc(NC(=S)N(CCN(C)C)Cc2cc3cc(C)cc(C)c3[nH]c2=O)c1 [CBK135105]	107.49
CC(=O)Nc1ccc(Nc2ncnc3scc(-c4ccccc4)c23)cc1 [CBK264930]	111.752
CCn1cc(C(=O)N2CCCCC2c2nc3cc(C)ccc3[nH]2)cn1 (stereo not shown) [CBK283869]	80.8528
O=C(c1cccnc1)C1CCN(C(=O)c2cc(F)cc(F)c2)CC1 [CBK283746]	79.8998
O=S(=O)(c1ccc(-c2ccc(S(=O)(=O)N3CCOCC3)cc2)cc1)N1CCOCC1 [CBK261366]	66.6765
COc1ccc([C@@]23CC[C@@H](NC(=O)Nc4ccc(F)cc4)C[C@@H]2N(C)CC3)cc1OC [CBK036458T]	102.202
